Reference: the supplement of paper PMC3334620
Whole data set: some 33,000 sequences, median “E-score (-0.5 to 0.5)” near -0.032, cut for the highest 2% near 0.36. The list shows a part of the results.

biological target: T1, Sko1 (UniProt Q02100); test: PBM E-score (8-mer binding enrichment) (E-score (-0.5 to 0.5)); higher = stronger / more preferred TF binding; most listed sequences are background and not binding sites; details: protein concentration: 200 nM; construct: GST-full length
T1 sequence: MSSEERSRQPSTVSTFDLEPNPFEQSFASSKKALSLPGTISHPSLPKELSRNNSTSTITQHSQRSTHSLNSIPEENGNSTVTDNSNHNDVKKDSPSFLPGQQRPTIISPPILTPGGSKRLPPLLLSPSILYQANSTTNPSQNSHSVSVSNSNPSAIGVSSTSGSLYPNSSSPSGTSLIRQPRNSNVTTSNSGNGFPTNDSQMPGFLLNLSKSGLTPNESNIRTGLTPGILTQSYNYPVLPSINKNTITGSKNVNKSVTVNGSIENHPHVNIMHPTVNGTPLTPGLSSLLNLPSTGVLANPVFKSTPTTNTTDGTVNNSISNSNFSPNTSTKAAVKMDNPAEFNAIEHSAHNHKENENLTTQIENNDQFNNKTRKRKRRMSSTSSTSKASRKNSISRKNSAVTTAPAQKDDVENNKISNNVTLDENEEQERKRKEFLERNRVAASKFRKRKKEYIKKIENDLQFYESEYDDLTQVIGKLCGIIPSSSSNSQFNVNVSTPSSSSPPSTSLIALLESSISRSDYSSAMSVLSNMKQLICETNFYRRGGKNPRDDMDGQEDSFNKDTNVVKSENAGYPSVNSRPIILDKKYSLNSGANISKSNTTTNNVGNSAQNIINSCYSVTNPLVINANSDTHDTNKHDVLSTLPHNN
Procedure, shortened: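 Universal all-10-mer Agilent arrays, double-stranded by primer extension on fresh or once-stripped slides, were probed with about 100-200 nM GST-tagged yeast transcription factors made by PURExpress. Fluorescent anti-GST detected bound protein, and masliner normalised the scans. E-scores from the Universal PBM Analysis Suite were given to each ungapped eight-base word pooled with its reverse complement.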

Sequence | PBM E-score
CTGCTGTC | -0.247
GACTTACA | 0.103
CACTAGTA | 0.0491
GCGGTGCC | -0.242
GATGCCTA | -0.0964
GATGCCAC | -0.0244
AGTTTCGC | -0.0524
ACCTTAAC | 0.0471
GGTGTATA | -0.239
AACCGTCC | -0.321
ACCAGCCC | -0.239
ATTAAGAG | -0.0418
ATCCGACA | -0.183
CACCACAC | -0.103
CGTGACAG | 0.029
CCGAAGCA | -0.0738
CAACATTG | 0.11
AGCGCGGG | 0.0352
CATGTAGA | 0.164
GCTGGATA | -0.13
ATCTGCAC | -0.125
AGACGATG | 0.0602
GACTTTCC | -0.0378
CGCGGTGC | -0.294
AGGGGAGG | -0.144

Sequence | PBM E-score
ATCCACAT | 0.111
AAACAGTG | 0.0703
CAACTTCG | -0.00172
AGCGTCCA | -0.0171
AATATTTG | 0.191
CTTCCTGA | 0.00984
CGATTGAC | 0.235
ATACGGGA | -0.14
ACCCGACA | -0.102
CCTATATA | 0.155
CAAGCTAA | -0.029
ACGCCAGA | -0.0139
AGACTCCG | -0.0865
CATATCAG | -0.116
GATTGCGA | 0.102
CGGTTGAC | 0.0603
AGATTCTG | -0.181
CGTAAAGA | 0.35
CTGCTAGA | -0.0391
CAGACCCA | -0.0318
GCGTCCTA | -0.133
CCCGGCCG | -0.307
GGGTACCC | -0.158
CAAAGCCA | 0.00031
CATACATC | 0.293

Sequence | PBM E-score
AATACTGG | -0.0515
CCCAGCAC | -0.263
AATTACAA | 0.152
AGATTTAT | 0.107
AACATAAA | 0.132
GGGGACGA | -0.125
ACAACACG | 0.23
TTAGGCAA | 0.0203
CCATACGG | 0.0128
ACTAGAGG | -0.18
ATCACTCA | 0.0754
GGGAGCGA | -0.241
GATCTAAA | 0.043
GATACTCA | -0.0611
GACTCGCC | -0.323
CCGAGTGA | -0.239
GGGATGCA | -0.232
ACAATCTA | 0.0759
GCTTAGCC | -0.313
CATCTGGG | -0.114
CGCACACC | 0.0394
ACGGCTTA | -0.0107
ATCTACCG | 0.0589
TGACTGAA | -0.122
AACTAGAG | -0.0318

Sequence | PBM E-score
AGACACGA | 0.136
GCGGCAGC | -0.333
TAACTATA | 0.11
GCCCAGGA | -0.21
AATCGAAT | 0.0932
GACTAGCA | -0.00763
ACGTAGGA | 0.446
CTTTAGAA | -0.0195
ACGCTGTA | 0.17
CTATAATC | 0.131
CTGCCGCA | -0.276
AATGCCGA | -0.126
CACCCGAA | -0.0464
GTCGTCGA | 0.0382
AGCGCCGC | -0.199
AGCAGAGA | -0.235
GGCGAAAA | 0.0196
ACGAAATG | 0.272
GAAGTCCA | -0.287
GCATTTAA | 0.148
CCATCGCG | 0.0763
CCGAGCAC | -0.0702
AGAAGGCA | -0.0924
AGTACGCC | 0.0522
ACGGTCTC | -0.297

Sequence | PBM E-score
CACATCAG | -0.0833
GGGTAGTA | -0.129
ATTAGTCG | 0.0159
ACTCCCTA | 0.264
CGGCTTAG | -0.161
CCTAACAC | 0.145
AAACTTCT | 0.105
GGCAAGCC | -0.202
AAGGACAA | -0.0445
AATTTGTG | 0.133
AACGCACT | 0.236
CTGGGACA | -0.266
CCGGCTAA | -0.105
GCGTATTA | 0.333
GTAGCGCA | -0.0234
TAGCGCAA | 0.125
CGAGTTAG | 0.094
GACAGGGA | -0.123
AAAGCGTT | -0.0425
CCCGTAGG | -0.194
GGCACCCA | -0.197
CTACACAA | 0.0981
ATAGCCGG | -0.15
CCTCCATA | -0.116
CGCTCCCA | -0.361

Sequence | PBM E-score
CCTAACTA | 0.0349
CAAGAGTC | -0.214
ACATTCTG | 0.00438
GTTTGTAA | 0.0307
CCCAGATC | -0.289
ATGGAAAC | -0.117
CACTGGGG | -0.239
CAGACAAA | 0.0488
ATACCCGG | -0.166
GCATAACC | -0.169
GCGTCGTA | 0.234
CCTGCAGA | -0.0607
CACAATGC | -0.131
AACCGCCC | -0.295
ATGAATCG | 0.084
GAAAGCAC | -0.0183
AGCGGGAC | -0.235
GATTACGA | 0.418
GCAGTGGA | 0.00999
ACACTTAG | 0.0751
GATGGAGC | -0.224
GACTGCCC | -0.215
AAGGCTAA | -0.074
AGTTCTTC | 0.123
ATCTTTTG | 0.0425

Sequence | PBM E-score
ACTACACG | 0.205
CGCTTCAA | -0.153
CCTTTCGA | -0.206
GCGCTTTA | 0.056
CACGGCTA | -0.00304
ACGAGAGC | -0.185
ACTAGCTA | 0.0605
AGGGCTAA | -0.114
CTATGACC | 0.212
TCGGACCA | -0.135
AACTATCG | 0.0542
GCGAGATA | 0.084
GACTAGGA | -0.0867
AGTTACTA | -0.0104
CGATCAAG | -0.068
CTGGCCTA | -0.213
GAGCAACA | -0.081
GCGATAAA | 0.0435
CGGCGAGC | -0.144
ACTGGGAG | -0.283
TGACGGAA | 0.356
AGAGCCCT | -0.328
